According to US20210230570:
Numbering of substitutions follows the chain as printed. Names may count otherwise.

B1: FIXa D85N/D203N/F205T (protein)
chain 1: YNSGKLEEFVQGNLERECMEEKCSFEEAREVFENTERTTEFWKQYVDGDQCESNPCLNGGSCKDDINSYECWCPFGFEGKNCELNVTCNIKNGRCEQFCKNSADNKVVCSCTEGYRLAENQKSCEPAVPFPCGRVSVSQTSKLTR
chain 2: [about 250 residues with changes left out]
B2: FIXa D85N/I251S (protein)
chain 1: B1 chain 1
chain 2: [about 250 residues with changes left out]
B3: FIXa-D85N/D104N/K106S/I251S (protein)
chain 1: B1 chain 1 with D104N, K106S
chain 2: [about 250 residues left out]
B4: FIXa D85N/K228N (protein)
chain 1: B1 chain 1
chain 2: [about 250 residues with changes left out]
B5: FIXa A103N/N105S/K228N (protein)
chain 1: B1 chain 1 with N85D, A103N, N105S
chain 2: [about 250 residues with changes left out]

Legend:
[1] = molecular target: Antithrombin III (AT-III), plasma purified human, in complex with full-length unfractionated heparin (UFH)
[2] = molecular target: plasma purified human AT-III (antithrombin III), in complex with low molecular weight heparin; assay: same assay; ratio of K0.5 to that of Catalyst Biosciences WT FIXa

| Protein | K0.5 [1] [nM] | K0.5-mut/K0.5-wt [1] | K0.5-mut/K0.5-wt [2] |
| --- | --- | --- | --- |
| B1 | 587 | 30.3 | – |
| B2 | 19 | – | – |
| B3 | – | – | 1.1 |
| B4 | 34 | 1.7 | – |
| B5 | 46 | 2.4 | – |
